# This is one part of the list.
# B1: NPA (Narcissus pseudonarcissus), C0HM45 (protein)
# chain: DNILYSGETLSPGEFLNNGRYVFIMQEDCNLVLYDVDKPIWATNTGGLDRRCHLSMQSDGNLVVYSPRNNPIWASNTGGENGNYVCVLQKDRNVVIYGTARWATGTNIH
# Assays:
# Test in all cases: glycan array binding signal (z-score within array); higher = stronger binding
# Conditions in all cases: glycan notation: IUPAC condensed, linker removed
# [1] = molecular target: GalNAc(b1-3)Gal
# In short: (§1)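 Glycan array data were curated from 3228 arrays in the Consortium for Functional Glycomics database and kept only where the protein sequence was available. Glycan names were converted to IUPAC-condensed notation, and columns mapping to the same glycan were averaged. The binding signal is a within-array Z-score, averaged across arrays of the same protein sequence at different concentrations or buffers and across linkers. Negative Z-scores can be read as non-binding.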
# [2] = molecular target: GalNAc(b1-3)Gal(a1-4)Gal(b1-4)GlcNAc
# In short: as §1
# [3] = molecular target: GalNAc(b1-3)Gal(a1-4)Gal(b1-4)GlcNAc(b1-3)Gal(b1-4)Glc
# In short: as §1
# [4] = molecular target: GalNAc(b1-3)Gal(a1-6)Gal(b1-4)Glc
# In short: as §1
# [5] = molecular target: GalNAc(b1-3)GalNAc
# In short: as §1
# [6] = molecular target: GalNAc(b1-3)GlcNAc
# In short: as §1
# [7] = molecular target: GalNAc(b1-4)Gal(b1-4)Glc
# In short: as §1
# [8] = molecular target: GalNAc(b1-4)GlcNAc
# In short: as §1
# [9] = molecular target: GalNAc(b1-4)GlcNAc(b1-2)Man
# In short: as §1
# [10] = molecular target: GalNAc(b1-4)GlcNAc(b1-2)Man(a1-3)[GalNAc(b1-4)GlcNAc(b1-2)Man(a1-6)]Man(b1-4)GlcNAc(b1-4)GlcNAc
# In short: as §1
# [11] = molecular target: GalNAc(b1-4)GlcNAc(b1-3)GalNAc(b1-4)GlcNAc
# In short: as §1
# [12] = molecular target: GalNAc(b1-4)GlcNAc6S
# In short: as §1
# [13] = molecular target: GalNAc(b1-6)GalNAc
# In short: as §1
# [14] = molecular target: GalNAc3S(b1-4)GlcNAc
# In short: as §1
# [15] = molecular target: GalNAc3S(b1-4)GlcNAc3S
# In short: as §1
# [16] = molecular target: GalNAc3S(b1-4)[Fuc(a1-3)]GlcNAc
# In short: as §1
# [17] = molecular target: GalNAc4S6S(b1-4)GlcNAc
# In short: as §1
# [18] = molecular target: GalNAc6S(b1-4)GlcNAc
# In short: as §1
# [19] = molecular target: Glc(a1-4)Glc
# In short: as §1
# [20] = molecular target: Glc(a1-4)Glc(a1-4)Glc(a1-4)Glc
# In short: as §1
# [21] = molecular target: Glc(a1-6)Glc(a1-6)Glc
# In short: as §1
# [22] = molecular target: Glc(a1-6)Glc(a1-6)Glc(a1-6)Glc
# In short: as §1
# [23] = molecular target: Glc(b1-4)Glc
# In short: as §1
# [24] = molecular target: Glc(b1-6)Glc
# In short: as §1
# [25] = molecular target: GlcA(b1-3)Gal
# In short: as §1
# [26] = molecular target: GlcA(b1-3)GlcNAc
# In short: as §1
# [27] = molecular target: GlcA(b1-6)Gal
# In short: as §1
# [28] = molecular target: GlcA3S(b1-3)Gal(b1-4)GlcNAc(b1-2)Man
# In short: as §1
# [29] = molecular target: GlcA3S(b1-3)Gal(b1-4)GlcNAc(b1-3)Gal(b1-4)Glc
# In short: as §1
# [30] = molecular target: GlcNAc(a1-3)Gal(b1-4)GlcNAc
# In short: as §1
# [31] = molecular target: GlcNAc(a1-4)Gal(b1-3)GlcNAc
# In short: as §1
# [32] = molecular target: GlcNAc(a1-4)Gal(b1-4)GalNAc
# In short: as §1
# [33] = molecular target: GlcNAc(a1-4)Gal(b1-4)GlcNAc
# In short: as §1
# [34] = molecular target: GlcNAc(a1-4)Gal(b1-4)GlcNAc(b1-3)Gal(b1-4)Glc
# In short: as §1
# [35] = molecular target: GlcNAc(a1-4)Gal(b1-4)GlcNAc(b1-3)Gal(b1-4)GlcNAc
# In short: as §1
# [36] = molecular target: GlcNAc(a1-4)Gal(b1-4)GlcNAc(b1-3)Gal(b1-4)GlcNAc(b1-3)Gal(b1-4)GlcNAc
# In short: as §1
# [37] = molecular target: GlcNAc(a1-4)Gal(b1-4)GlcNAc(b1-3)Gal(b1-4)[Fuc(a1-3)]GlcNAc(b1-3)Gal(b1-4)[Fuc(a1-3)]GlcNAc
# In short: as §1
# [38] = molecular target: GlcNAc(a1-6)Gal(b1-4)GlcNAc
# In short: as §1
# [39] = molecular target: GlcNAc(b1-2)Gal(b1-3)GalNAc
# In short: as §1
# [40] = molecular target: GlcNAc(b1-2)Man(a1-3)[GlcNAc(b1-2)Man(a1-6)]Man(b1-4)GlcNAc(b1-4)GlcNAc
# In short: as §1
# [41] = molecular target: GlcNAc(b1-2)Man(a1-3)[GlcNAc(b1-2)Man(a1-6)]Man(b1-4)GlcNAc(b1-4)[Fuc(a1-6)]GlcNAc
# In short: as §1
# [42] = molecular target: GlcNAc(b1-2)Man(a1-3)[GlcNAc(b1-4)][GlcNAc(b1-2)Man(a1-6)]Man(b1-4)GlcNAc(b1-4)GlcNAc
# In short: as §1
# [43] = molecular target: GlcNAc(b1-2)Man(a1-3)[GlcNAc(b1-4)][GlcNAc(b1-2)Man(a1-6)]Man(b1-4)GlcNAc(b1-4)[Fuc(a1-6)]GlcNAc
# In short: as §1
# [44] = molecular target: GlcNAc(b1-2)[GlcNAc(b1-4)]Man(a1-3)[GlcNAc(b1-2)Man(a1-6)]Man(b1-4)GlcNAc(b1-4)GlcNAc
# In short: as §1
# [45] = molecular target: GlcNAc(b1-2)[GlcNAc(b1-4)]Man(a1-3)[GlcNAc(b1-4)][GlcNAc(b1-2)Man(a1-6)]Man(b1-4)GlcNAc(b1-4)GlcNAc
# In short: as §1
binder,measurement,setting,value
B1,glycan array binding signal (z-score),[1],-0.146
same,glycan array binding signal (z-score),[2],-0.155
same,glycan array binding signal (z-score),[3],-0.138
same,glycan array binding signal (z-score),[4],-0.144
same,glycan array binding signal (z-score),[5],-0.153
same,glycan array binding signal (z-score),[6],-0.148
same,glycan array binding signal (z-score),[7],-0.129
same,glycan array binding signal (z-score),[8],-0.131
same,glycan array binding signal (z-score),[9],-0.115
same,glycan array binding signal (z-score),[10],0.008
same,glycan array binding signal (z-score),[11],-0.118
same,glycan array binding signal (z-score),[12],-0.151
same,glycan array binding signal (z-score),[13],-0.151
same,glycan array binding signal (z-score),[14],-0.15
same,glycan array binding signal (z-score),[15],-0.16
same,glycan array binding signal (z-score),[16],-0.152
same,glycan array binding signal (z-score),[17],-0.155
same,glycan array binding signal (z-score),[18],-0.135
same,glycan array binding signal (z-score),[19],-0.144
same,glycan array binding signal (z-score),[20],-0.139
same,glycan array binding signal (z-score),[21],-0.15
same,glycan array binding signal (z-score),[22],-0.145
same,glycan array binding signal (z-score),[23],-0.152
same,glycan array binding signal (z-score),[24],-0.141
same,glycan array binding signal (z-score),[25],-0.148
same,glycan array binding signal (z-score),[26],-0.14
same,glycan array binding signal (z-score),[27],-0.141
same,glycan array binding signal (z-score),[28],-0.154
same,glycan array binding signal (z-score),[29],-0.142
same,glycan array binding signal (z-score),[30],-0.141
same,glycan array binding signal (z-score),[31],-0.152
same,glycan array binding signal (z-score),[32],-0.125
same,glycan array binding signal (z-score),[33],-0.12
same,glycan array binding signal (z-score),[34],-0.136
same,glycan array binding signal (z-score),[35],-0.14
same,glycan array binding signal (z-score),[36],-0.138
same,glycan array binding signal (z-score),[37],-0.115
same,glycan array binding signal (z-score),[38],-0.155
same,glycan array binding signal (z-score),[39],-0.16
same,glycan array binding signal (z-score),[40],0.885
same,glycan array binding signal (z-score),[41],-0.124
same,glycan array binding signal (z-score),[42],-0.143
same,glycan array binding signal (z-score),[43],-0.152
same,glycan array binding signal (z-score),[44],-0.076
same,glycan array binding signal (z-score),[45],-0.15

# Source: the supplement of paper PMC8728848
